About 14,000 (4.5%) of roughly 310,000 compounds showed an effect of 50% or more. Effects have a minus sign here. The list shows a part of the results.
molecular target: human ether-à-go-go-related gene (hERG) potassium channel (human, UniProt Q12809); assay: primary screen, population patch clamp on CHO cells stably expressing hERG
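Further: peak tail current of the secondary pulse compared with the same well before compound.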

Chain of human ether-à-go-go-related gene (hERG) potassium channel (Q12809 whole entry, looked up): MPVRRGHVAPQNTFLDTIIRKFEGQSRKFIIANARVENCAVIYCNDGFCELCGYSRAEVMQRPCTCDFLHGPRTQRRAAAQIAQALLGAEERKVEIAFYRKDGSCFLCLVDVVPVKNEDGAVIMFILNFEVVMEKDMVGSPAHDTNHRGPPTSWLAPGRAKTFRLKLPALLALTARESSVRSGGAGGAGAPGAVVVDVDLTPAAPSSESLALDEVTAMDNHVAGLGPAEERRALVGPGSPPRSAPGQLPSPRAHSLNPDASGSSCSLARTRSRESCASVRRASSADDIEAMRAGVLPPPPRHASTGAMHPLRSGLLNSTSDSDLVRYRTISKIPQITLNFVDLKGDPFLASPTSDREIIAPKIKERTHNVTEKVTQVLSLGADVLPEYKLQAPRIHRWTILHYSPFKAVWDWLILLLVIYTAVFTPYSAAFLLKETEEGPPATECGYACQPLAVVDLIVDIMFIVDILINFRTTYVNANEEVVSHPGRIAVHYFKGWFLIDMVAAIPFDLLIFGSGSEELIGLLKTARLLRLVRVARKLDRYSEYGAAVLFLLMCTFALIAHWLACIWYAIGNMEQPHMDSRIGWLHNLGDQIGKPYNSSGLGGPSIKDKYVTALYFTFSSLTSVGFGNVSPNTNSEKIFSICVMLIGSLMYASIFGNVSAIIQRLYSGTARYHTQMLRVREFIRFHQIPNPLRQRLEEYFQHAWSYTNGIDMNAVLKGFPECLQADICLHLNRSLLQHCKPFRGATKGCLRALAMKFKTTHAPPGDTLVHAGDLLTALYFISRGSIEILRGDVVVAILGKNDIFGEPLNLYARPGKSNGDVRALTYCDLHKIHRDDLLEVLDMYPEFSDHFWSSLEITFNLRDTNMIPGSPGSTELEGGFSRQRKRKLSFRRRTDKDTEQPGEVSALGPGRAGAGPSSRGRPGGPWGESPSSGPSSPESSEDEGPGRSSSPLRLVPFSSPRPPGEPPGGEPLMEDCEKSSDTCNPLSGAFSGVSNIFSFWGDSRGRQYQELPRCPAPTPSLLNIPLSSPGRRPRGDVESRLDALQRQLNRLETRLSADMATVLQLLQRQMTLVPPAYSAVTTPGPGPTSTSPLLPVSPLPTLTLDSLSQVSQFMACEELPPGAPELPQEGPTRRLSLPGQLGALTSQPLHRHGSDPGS

SMILES	hERG current change (%, negative = inhibition) at 10uM
O=P(c1ccccc1)(c1ccccc1)C(O)c1ccc(Br)cc1 (stereo not drawn)	26.3%
Nc1cccc2c1C(=O)N(C(=O)c1ccc(S(=O)(=O)N3CCCCCC3)cc1)C2=O	-5.3%
O=[N+]([O-])c1cc(C(F)(F)F)cc([N+](=O)[O-])c1NCCCN1CCOCC1	-30.6%
Cc1ccc(NS(=O)(=O)c2cc(C(=O)NCc3ccccn3)ccc2Cl)cc1	1.61%
COc1ccc(N2CCN(C(CNC(=O)C(C)(C)C)c3ccco3)CC2)cc1 (stereo not drawn)	-11%
Cc1onc(-c2ccccc2)c1C(=O)Nc1ccncc1	26.9%
CC(=O)N1CN2CN(C1)CN(C(C)=O)C2	2.45%
COc1ccc(N2C(=O)NC(=O)/C(=C/c3ccc4c(c3)Cc3ccccc3-4)C2=O)cc1	5.74%
CCC(=NCCCN(CC)CC)c1c(O)n(-c2ccccc2)c(=O)[nH]c1=O	-4.73%
CC(C)CN1CCC(=O)N(CCOc2ccccc2)CC1	13.1%
COC(=O)c1nc2ccccc2s1	6.89%
COc1ccc(C(=O)NCc2nnc(SCC(=O)N3CCC(C)CC3)o2)cc1OC	8.24%
CCc1c(C(=O)NNC(=S)NCc2ccccc2)csc1C	-2.33%
O=C(CSc1nc2ccccc2c(=O)n1-c1ccccc1)N1CCC1	15.8%
CC1=C(C(=O)OCc2ccccc2)C(c2ccoc2)C(C#N)=C(N)O1 (stereo not drawn)	4.45%
CCc1ccc(CN(C)CC(=O)Nc2ccccc2[N+](=O)[O-])cc1	-3.65%
CP(=O)(COC(=O)c1ccccc1)COC(=O)c1ccccc1	-2.14%
O=C(NCCN1CCCc2ccccc21)C1CCC(=O)N(CCc2ccccc2)C1 (stereo not drawn)	1.86%
Nc1ccc(-c2nc(-c3ccccc3)nc3ccccc23)cc1	5.34%
COCCn1c(SCC(=O)Nc2cc(C(C)(C)C)nn2-c2ccccc2)nc2ccccc2c1=O	-4.39%
CCN(CC)CCN(C(=O)/C=C/c1cccs1)c1nc2ccc(F)cc2s1.Cl	-34.4%
CCN(C(=O)CSC1=Nc2ccccc2C2CC=NN12)C1CCS(=O)(=O)C1 (stereo not drawn)	25.4%
Cc1cc(OC(=O)c2ccco2)c2c3c(c(=O)oc2c1)CCC3	5.13%
CN=c1scc(-c2ccc(OC)cc2)n1/N=C(\C)c1cccnc1	-4.25%

Source: PMC4336329 (PLoS ONE, 2015)
